Assay results as given in the supplement of paper PMC3334620.
In all, about 33,000 sequences were measured (“E-score (-0.5 to 0.5)”: median about -0.036, highest 2% from about 0.37 on). The list shows a part of the results.

Target: T1, Yer064c (UniProt P40041)
T1 sequence: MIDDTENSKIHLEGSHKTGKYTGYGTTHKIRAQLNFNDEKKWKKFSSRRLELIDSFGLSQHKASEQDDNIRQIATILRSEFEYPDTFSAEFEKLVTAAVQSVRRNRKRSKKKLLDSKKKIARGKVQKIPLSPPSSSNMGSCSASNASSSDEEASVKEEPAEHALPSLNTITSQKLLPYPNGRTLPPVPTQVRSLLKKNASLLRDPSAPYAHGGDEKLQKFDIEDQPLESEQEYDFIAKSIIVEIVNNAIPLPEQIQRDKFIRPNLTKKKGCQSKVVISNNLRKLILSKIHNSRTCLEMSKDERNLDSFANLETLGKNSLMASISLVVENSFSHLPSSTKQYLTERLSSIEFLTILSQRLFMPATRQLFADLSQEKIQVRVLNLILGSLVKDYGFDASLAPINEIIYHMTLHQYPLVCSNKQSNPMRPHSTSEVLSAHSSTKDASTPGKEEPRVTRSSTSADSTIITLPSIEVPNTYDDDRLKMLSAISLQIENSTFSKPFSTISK
Assay: PBM E-score (8-mer binding enrichment) (E-score (-0.5 to 0.5)); higher = stronger / more preferred TF binding; most listed sequences are background and not binding sites
Conditions: protein concentration: 200 nM; construct: GST-full length
Procedure, shortened: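 Universal all-10-mer Agilent arrays, fresh or stripped once, were converted to double-stranded form by primer extension. GST-tagged yeast transcription factors from PURExpress in vitro transcription/translation, full-length or DNA-binding domain only, were applied at about 100-200 nM and detected with fluorescent anti-GST. After masliner normalisation, the Universal PBM Analysis Suite scored each ungapped eight-base word together with its reverse complement by E-score.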

Row | Sequence | PBM E-score
1 | AGTCACCA | 0.469
2 | ATATTTGA | 0.22
3 | ATGCCTTA | -0.124
4 | CCCGTCTA | -0.089
5 | CATTACCG | 0.00021
6 | CGATTAAC | 0.265
7 | GAGGGGAC | 0.00191
8 | ACACATCA | 0.152
9 | ACAGACCG | -0.261
10 | ACTGTCTC | 0.0116
11 | TCTGGACA | -0.266
12 | ATTGTGCG | 0.038
13 | ACAGAGCG | -0.05
14 | ACTTAAGT | 0.176
15 | AGCTTCGA | -0.125
16 | AGGATTCG | -0.0455
17 | CATGAGTA | 0.341
18 | AATGGGCC | -0.281
19 | ATCACAGC | 0.102
20 | CCCATCAC | -0.0593
21 | CGAGAAGC | -0.169
22 | CTGTCATA | 0.0424
23 | ACCGGTCG | -0.0496
24 | CCCTGATC | -0.0628
25 | ACAGAACA | -0.00928

Row | Sequence | PBM E-score
26 | ACTCCGCA | 0.108
27 | CCTGCTAC | -0.184
28 | TAGGCGCA | -0.147
29 | CCATGGCA | -0.151
30 | CACAATCG | 0.0405
31 | GCGGAGTA | -0.0756
32 | ACCCGGGA | 0.0149
33 | CCGCTAAC | -0.181
34 | GAAACAGC | -0.155
35 | AGGTTACT | -0.0277
36 | CAGCGGAA | -0.156
37 | CAATATCA | -0.101
38 | GTCAGAAC | 0.188
39 | GACGATTA | 0.235
40 | CCGACCCG | -0.0852
41 | GGAGTTAC | -0.0565
42 | AATCACAC | 0.39
43 | GAAGACGC | -0.193
44 | CACCCCGG | -0.158
45 | GCTAAATA | 0.0617
46 | CTATCTTA | 0.0476
47 | CAAATGTA | 0.0294
48 | CCGGGTGC | -0.19
49 | CTCAACAG | 0.0876
50 | TCTTATAA | 0.12

Row | Sequence | PBM E-score
51 | AAAAGGGT | 0.0701
52 | TCGGATAA | 0.118
53 | AGTCCCCA | 0.104
54 | ATCGCCGA | -0.0721
55 | CGGTCAGA | -0.0902
56 | ATTAAAGC | 0.0483
57 | TCACTCCA | 0.152
58 | CAGCGCTC | 0.0249
59 | CGCGTAAC | -0.139
60 | CTTCGCGA | 0.105
61 | CGTTATAA | -0.0476
62 | TCAGGTAA | 0.258
63 | AGCAGTTC | -0.0752
64 | AAATGGAC | 0.0357
65 | AGGCCATC | -0.231
66 | ATCAGCCA | 0.0788
67 | TACGGGGA | -0.0803
68 | AGACTGTG | 0.0326
69 | CTAATGTC | -0.0148
70 | CAAAAAGG | -0.139
71 | AGTTGTTC | -0.0226
72 | ATATCCGC | -0.126
73 | GTACGGAA | -0.113
74 | ATATCGGA | -0.00073
75 | CAGCCTGG | -0.0683

Row | Sequence | PBM E-score
76 | CTCCTACC | -0.0279
77 | TACCCGTA | -0.0721
78 | AAATCATT | 0.359
79 | CTACGGTC | -0.133
80 | CTCCATTC | -0.173
81 | CACAGTAC | 0.0375
82 | CCCTTTTC | -0.151
83 | AGAATCCC | 0.0788
84 | CTCGGGGC | -0.00751
85 | ATTGCTCC | -0.217
86 | CACAACAC | 0.095
87 | CAGTCCGG | -0.187
88 | TACACCTA | 0.0213
89 | CATAGGCG | -0.266
90 | GTATAGCA | -0.172
91 | CCTTCCAA | 0.049
92 | GGGCAAAA | -0.154
93 | ACGGGCAT | -0.24
94 | GCAGGGAC | -0.0853
95 | GAACGCTA | -0.101
96 | GCTAGAGC | -0.0433
97 | CCGGTGCC | -0.347
98 | ATGCCATC | -0.298
99 | AACCCGGA | -0.008
100 | AGGCTGTG | -0.042

Row | Sequence | PBM E-score
101 | ACCTAGCC | -0.262
102 | GTTCAGTA | 0.0775
103 | ACGCGGTA | -0.227
104 | GCATATAC | -0.259
105 | AACAGACC | -0.124
106 | CAACTCTG | -0.0555
107 | CTCGGATC | -0.036
108 | CGTTATCC | -0.11
109 | CCTGACCG | -0.197
110 | AAAGATTT | 0.107
111 | CATTCGCC | -0.185
112 | CCCAAAAA | -0.0974
113 | TAATCGTA | 0.163
114 | AGAGGATC | -0.0859
115 | TCCTGAGA | 0.122
116 | AAGTAATA | -0.197
117 | ACCTAATG | 0.0141
118 | CCGCCTAC | -0.132
119 | GCACACAC | 0.00172
120 | GTCCACAA | -0.214
121 | AGTTCAAT | -0.0152
122 | CCAAGAAC | -0.15
123 | TTAGCTAA | 0.19
124 | ACTACAAA | 0.169
125 | ATTGCGTG | -0.15

Row | Sequence | PBM E-score
126 | ACGATCCG | -0.0916
127 | ACCACAAG | -0.107
128 | CGGTCCGC | -0.28
129 | ATGTCGAG | -0.0948
130 | GGTCGAGA | -0.122
131 | CACCTACA | -0.0403
132 | GCAAGCTA | -0.0761
133 | ATTAGATC | 0.0994
134 | AACTGACT | 0.404
135 | GCGTACAC | 0.0428
136 | ATCGGATG | -0.0626
137 | AACGTAAG | 0.186
138 | CTTGCAGC | -0.0777
139 | GATTCTGA | 0.223
140 | ATCTTTAC | -0.0262
141 | CAATACTG | 0.0129
142 | AGAGAAGA | -0.0164
143 | CCCCCAGA | -0.413
144 | ACTCTACT | 0.202
145 | ACGACGAA | 0.139
146 | AAAGTCTT | 0.217
147 | TTGAAAAA | 0.117
148 | AACTTATG | 0.124
149 | CGTAATTC | -0.0844
150 | ATTGCGTC | -0.128

Row | Sequence | PBM E-score
151 | CACCCAAC | -0.0191
152 | ACTTGCAG | -0.0251
153 | CTTAACCC | 0.0143
154 | ATAAGCTA | 0.0582
155 | CGCCAGTC | 0.135
156 | AGCCGGCC | -0.134
157 | ACCTACTC | -0.0206
158 | AAGCTTGA | -0.0274
159 | CACGGTCA | -0.0911
160 | AAGTCAGA | 0.341
161 | AGTATGTC | 0.205
162 | GCCCAAAC | -0.0218
163 | GAAATATC | 0.0323
164 | CCCTTTCC | -0.239
165 | ACCAACAA | 0.0475
166 | AAAGAGAA | -0.0202
167 | AGGTAACT | -0.0493
168 | CCTCAAGA | -0.142
169 | AGCGAAAA | -0.0104
170 | ATGGCCAG | -0.17
171 | TCAACGAA | 0.193
172 | AACGCGGT | -0.0415
